Source: PubChem BioAssay AID485344 (National Center for Advancing Translational Sciences (NCATS), 2010)
The campaign covered roughly 340,000 compounds. About 6,900 (2%) were called active. No stated cut-off is given here; in the data, active means inhibition above about 30%; inactive means below that, where a call was filed. The entries are a selection whose mix differs from that of the whole data set. Where no call is shown, the source filed none.

Target: D(2) dopamine receptor (Homo sapiens) (UniProt P14416)
Assay: HTS Assay for Allosteric Antagonists of the Human D2 Dopamine Receptor: Primary Screen for Antagonists; further: 0% is about no effect
Conditions: HEK293 TREx D2 cells, calcium flux, dopamine EC80; at 10 µM; stronger effect = higher value
Source text: NIH Chemical Genomics Center [NCGC] NIH Molecular Libraries Probe Centers Network [MLPCN] MLPCN Grant: NS064831-01 Assay Submitter (PI): David Sibley Dopamine receptors (DARs) are involved in the etiology and/or therapy of a number of neuropsychiatric and endocrine disorders. For instance, all receptor-based antiparkinsonian drugs work via stimulating the D2 DAR subtype whereas all FDA-approved antipsychotic agents are antagonists of this receptor. […] There are three different types of allosteric modulators that we are seeking, two of which will stimulate or augment receptor signaling, allosteric agonists and potentiators, while the third, allosteric antagonists, will attenuate receptor signaling. The present primary screening assay measures compound antagonism after an EC80 addition of dopamine by tracking calcium flux in a […], inducible Hek293 Trex D2 cell line.
Freshly passaged cells are plated in 1536 well black, clear bottom plates at a density of 4000 cells/well in 3 ul of complete media containing 1x tetracycline inducer. After an overnight incubation at 30 C in 5% CO2, cells are loaded with 2 ul of the no wash Calcium Assay Kit (ABD Bioquest) and incubated at room temperature for 30 to 90 minutes. Agonist read: A 10 cycle (1 second/cycle) baseline measurement is taken and then the FDSS online 1536 pintool delivers 23 nl of compound library (as well as dopamine controls) to the plate. The plate is measured for kinetically at 1 cycle/sec for 180 seconds. Following the 180 second read, 1 ul of an EC80 (negative modulation assay) is delivered by an onboard pipette head. Measurements are taken kinetically for an additional 180 seconds.

Chain of UniProt P14416 (P14416 whole entry, looked up): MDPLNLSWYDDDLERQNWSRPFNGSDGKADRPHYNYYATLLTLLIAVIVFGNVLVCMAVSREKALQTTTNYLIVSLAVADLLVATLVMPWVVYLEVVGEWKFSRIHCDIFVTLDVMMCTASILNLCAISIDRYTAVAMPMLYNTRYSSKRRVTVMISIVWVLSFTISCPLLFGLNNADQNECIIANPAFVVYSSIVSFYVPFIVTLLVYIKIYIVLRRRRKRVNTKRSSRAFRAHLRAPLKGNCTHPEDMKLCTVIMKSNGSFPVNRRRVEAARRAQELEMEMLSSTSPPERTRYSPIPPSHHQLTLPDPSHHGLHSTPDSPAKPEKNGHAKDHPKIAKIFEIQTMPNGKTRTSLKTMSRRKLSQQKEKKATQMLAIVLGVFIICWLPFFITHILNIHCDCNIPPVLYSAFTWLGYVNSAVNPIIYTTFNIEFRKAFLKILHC

| SMILES | inhibition |
| --- | --- |
| COc1ccc(CNC(=O)c2cc3cccc(OC)c3oc2=O)cc1 | -1.35% |
| Cc1ccc(NC(=O)Cn2c(=O)c(CNc3ccccc3)cc3cc4c(cc32)OCCO4)cc1 | -20.4% |
| COC(=O)c1ccc(NC(=O)CSc2n[nH]c(CC(C)C)n2)cc1 | 6.33% |
| Cc1cccc(C)c1NC(=O)CSCc1cnn(-c2ccccc2)c1-n1cccc1 | 6.71% |
| CCC(Sc1nc2ccccc2c2nc(CCc3c(C)n[nH]c3C)nn12)C(=O)Nc1ccccc1F (stereo unspecified) | 11.7% |
| COc1ccccc1Cn1c(CNS(=O)(=O)c2cccc([N+](=O)[O-])c2)nc2cccnc21 | 9.16% |
| COc1ccc(C)cc1NC(=O)CCn1nc(C)cc1C | 1.98% |
| Cc1ccc(-c2nonc2NC(=O)c2ccco2)cc1C | 1.24% |
| COc1cc(CNc2ccc3[nH]c(=O)[nH]c3c2)cc(Cl)c1OCc1ccccc1F | 7.3% |
| Cc1ccc(-c2nc3ccccc3[nH]2)cc1NC(=O)COc1cccc(C)c1C | 8.45% |
| Cc1ccc(CNC(=O)c2ccc3c(c2)N(Cc2cccc(C)c2)C(=O)CS3)cc1 | -7.76% |
| Cc1ccc(-c2nn(CC(=O)Nc3cccc(C(F)(F)F)c3)c(=O)c3ccccc23)cc1 | 2.37% |
| Cc1oc(C)c2c(=O)cc(-c3ccc4c(c3)OCO4)cc(OC(=O)c3ccc(Cl)cc3)c12 | 8.12% |
| CCN(Cc1ccccc1)C(=O)Cn1c(=O)n(-c2ccc(F)c(Cl)c2)c(=O)c2sc3ccccc3c21 | 5.82% |
| Cc1cccc(C)c1OCCSc1nc2ccccc2n1CC(=O)O | -2.11% |
| O=C(Nc1cccc(-c2nc3ccccc3o2)c1)c1cc([N+](=O)[O-])ccc1N1CCOCC1 | 16.2% |
| COC(=O)CC1Oc2ccc(F)cc2-n2cc(-c3ccc(Cl)cc3)nc21 (stereo unspecified) | -12.5% |
| CC(=O)Nc1ccc(NS(=O)(=O)c2ccc3c(c2)CC(C)N3C(=O)C2CCC2)cc1 (stereo unspecified) | 0.607% |
| COc1ccc(-c2nc3c4cnn(-c5ccccc5F)c4ncn3n2)cc1 | -12.7% |
| COc1ccc(NC(=O)CN2CCCN(S(=O)(=O)c3ccc(Br)cc3)CC2)c(OC)c1 | -0.539% |
| Cc1cccc(-c2nc(CCNC(=O)c3ccco3)cs2)c1 | 9.52% |
| CCOC(=O)c1ccc(NC(=O)CCS(=O)(=O)c2ccc(C)cc2)cc1 | -9.14% |
| CC(C)OCCCNC(=O)CCCn1c(=O)[nH]c2ccsc2c1=O | 23.1% |
| Cc1ccc(CNC(=O)C2CCC(CNS(=O)(=O)c3ccc4c(c3)CCCC(=O)N4)CC2)cc1 (stereo unspecified) | -5.65% |

| SMILES | inhibition |
| --- | --- |
| Cc1cc(C)cc(Nc2cc(C(=O)NCCCN(Cc3ccccc3)C(C)C)c3ccccc3n2)c1 | -13.1% |
| CCOc1ccc(CNC(=O)c2cc(=O)[nH]c3ccc(S(=O)(=O)N4CCCCC4)cc23)cc1 | 0.564% |
| COc1ccc(CN(C(=O)c2cc3ccccc3oc2=O)C2CCS(=O)(=O)C2)cc1 (stereo unspecified) | 1.74% |
| CC(COc1ccccc1)N1CCC(CO)(CCc2ccccc2)CC1 (stereo unspecified) | active: 51.5% |
| COc1cc(O)ccc1C1CC(=O)Nc2c1c(=O)nc(SCc1ccccc1C)n2C (stereo unspecified) | -2.04% |
| CCN1c2ccccc2-c2nc(SCC(=O)Nc3cccc(C(F)(F)F)c3)ncc2S1(=O)=O | -1.53% |
| CCC(C)(C)NS(=O)(=O)c1cc(-c2cc(C)no2)ccc1C | -0.669% |
| Cc1ccc(C)c(CN2C(=O)c3ccccc3S(=O)c3ccc(C(=O)N4CCC(C)CC4)cc32)c1 (stereo unspecified) | 11.1% |
| COc1ccc(-c2nc(CSCC(=O)N3CCN(C)CC3)c(C)o2)cc1OC | active: 39.6% |
| COc1ccc(CNc2oc(-c3ccc(COc4ccc(Cl)cc4)o3)nc2C#N)cc1 | 4.46% |
| CCOC(=O)c1cccc(NC(=O)c2cc(S(=O)(=O)N3CCCCCC3)cn2C)c1 | 6.87% |
| CC1(C)C=C(c2ccc(C=O)s2)CC(C)(C)N1 | active: 33.6% |
| CCOC(=O)CSc1nc2sc3c(c2c(=O)n1Cc1ccccc1)CCC(C(C)(C)C)C3 (stereo unspecified) | -1.14% |
| COc1ccc(CNC(=O)c2c(Nc3ccc(OC)cc3OC)sc(C(=O)c3ccc(Cl)cc3)c2N)cc1 | -3.86% |
| Cc1ccc(NC(=O)c2oc3ccc(S(=O)(=O)N4CCCCC4)cc3c2C)cc1C | 13.1% |
| O=C(c1cc2ccc3cccnc3c2[nH]1)N1CCN(c2cccc(C(F)(F)F)c2)CC1 | 8.72% |
| COc1ccc2c(c1)c1c(c(=O)n(CCc3ccccc3)c(=O)n1Cc1ccccc1)n2C | -4.67% |
| Cc1ccc(C)c2sc(NC(=O)c3ccc(S(=O)(=O)N4CCCC4)cc3)nc12 | 14.6% |
| CCOc1ccc(CNC(=O)c2ccc3c(c2)nc2n3CCOC2)cc1 | -5.94% |
| O=C(Cc1ccccc1[N+](=O)[O-])NC1CCN(Cc2ccccc2)CC1 | active: 48.4% |
| CCN1CCN(CCCNC(=O)c2cc3c(=O)n(CC)c4ccccc4c3s2)CC1 | 6.75% |
| Cc1c(CNCc2ccc(OC(C)C)cc2)c(C(=O)O)c(C)n1Cc1ccc(Cl)cc1 | -7.82% |
| COc1ccc(N(C(=O)c2ccccc2F)S(=O)(=O)c2ccc3c(c2)n(C)c(=O)n3C)cc1 | -8.44% |
| CC(=O)N1CCOc2cc(S(=O)(=O)NCc3ccc(C)cc3)c(C)cc21 | -18.7% |

| SMILES | inhibition |
| --- | --- |
| COc1cc(OC)cc(C(=O)Nc2ccc3oc(-c4ccccc4C)nc3c2)c1 | -7.02% |
| CCC(=O)Nc1ccc(C)cc1-c1nc2ccccc2n(CC(=O)Nc2ccccc2Cl)c1=O | -11.3% |
| CN(CC(=O)Nc1ccc(F)c(F)c1F)C(=O)Cc1ccc2c(c1)OCCO2 | active: 35.1% |
| Cc1ccccc1NC(=O)c1c(C)oc2ccc(O)c(CN3CCCC3)c12 | 11.1% |
| COc1cccc(-c2cc(C(=O)Nc3cc(C)nn3-c3ccccc3)no2)c1 | 5.34% |
| CC(C)CNc1nc(NC(C)(C)C)nc(Oc2ccc(=O)n(-c3ccccc3)n2)n1 | -19.4% |
| COc1ccccc1OCCn1c(COc2cc(C)ccc2C)nc2ccccc21 | -9.75% |
| Cc1nn2c(C)c(C(=O)N3CCN(c4ccccc4)CC3)cnc2c1-c1ccccc1 | 9.26% |
| Cc1ccc(CCNC(=O)c2cc3c(=O)oc4ccccc4c3s2)cc1 | -6.77% |
| COc1cccc(CNC(=O)CNS(=O)(=O)c2ccc3nc(C)sc3c2)c1 | 0.638% |
| COc1cc(NC(=O)CSc2nc3ccccc3nc2Cc2ccccc2OC)cc(OC)c1 | -18.8% |
| O=C(c1ccc(Cl)cc1)N(Cc1ccco1)Cc1ccco1 | 2.66% |
| CCOc1ccccc1Nc1sc(C(=O)c2ccccc2)c(N)c1C(=O)NCCc1ccccc1 | -14.5% |
| COc1ccc(CCNC(=O)CCCn2c(=O)c3ccccc3n(Cc3ccc(C)cc3)c2=O)cc1OC | -12.2% |
| Cc1ccc2ncc(C(=O)NCCc3ccc(S(N)(=O)=O)cc3)c(=O)n2c1 | 17.5% |
| COc1ccc(C)cc1NC(=O)COCc1cc(-c2cccs2)on1 | 5.82% |
| O=C(NCC(Cl)c1ccc2ccccc2c1)c1c(F)cccc1F (stereo unspecified) | active: 68.8% |
| CCOc1ccc(NC(=O)CSc2nc3c(c(=O)[nH]2)CCCC3)cc1 | 6.49% |
| O=C(CCS(=O)(=O)c1cc(Br)cc2c1N(C(=O)C1CC1)CC2)N1CCN(c2ccc(F)cc2)CC1 | -9.05% |
| COc1cc(C2c3c(oc4ccc(F)cc4c3=O)C(=O)N2c2nc(C)c(C)s2)cc(OC)c1OC (stereo unspecified) | 4.22% |
| COc1ccc(N2CCN(S(=O)(=O)CCNC(=O)C3CC(=O)N(c4ccccc4)C3)CC2)cc1 (stereo unspecified) | -4.07% |
| CCCOc1ccc(CN(C(=O)c2cc(=O)c3ccc(C)cc3o2)C2CCS(=O)(=O)C2)cc1 (stereo unspecified) | -3.57% |
| Cc1nc(CC(=O)Nc2cc(Cl)ccc2C)cs1 | -2.59% |
| COc1cc(C)ccc1OCCSc1nc(-c2cccc(C)c2)nc2cc(=O)[nH]n12 | 7.33% |

| SMILES | inhibition |
| --- | --- |
| CCCN(C(=O)c1cn(C)c(=O)c2ccccc12)c1ccccc1C | 4.02% |
| Cc1cc(C(=O)COC(=O)c2ccc3c(c2)NC(=O)CS3)c(C)n1CCc1ccc(Cl)cc1 | active: 63.4% |
| O=C(CN1CCSc2ccccc21)NCc1ccccc1F | -18.2% |
| COc1ccc2nc(N(Cc3cccnc3)C(=O)C3COc4ccccc4O3)sc2c1 (stereo unspecified) | -10% |
| CCNC(=O)c1ccc2nc(CCc3ccccc3)oc2c1 | -6.47% |
| CCN(CC)CCCNC(=O)c1ccc2nc(N3CCCCC3)sc2c1 | -10.1% |
| Cn1c(CCN2CCCCC2)nc2cc(NS(=O)(=O)c3ccccc3)ccc21 | active: 37.9% |
| CCC(C(=O)NCCc1ccc(OC)c(OC)c1)n1nc(C)n2c(cc3occc32)c1=O (stereo unspecified) | active: 33.1% |
| Cc1cc(Nc2ccccc2C)nc(-n2nc(C)cc2C)n1 | -15.5% |
| Cc1n[nH]c(C)c1S(=O)(=O)N1CCCC(C(=O)Nc2ccc(Br)cc2)C1 (stereo unspecified) | 3.09% |
| COc1ccc(CCNC(=O)c2cc(C)nc3c2c(C)nn3-c2ccc(C)cc2)cc1OC | 5.71% |
| O=C1C(=O)N(C2CCN(C(=O)c3ccc(Cl)cc3)CC2)CCN1Cc1ccc(F)cc1 | 4.68% |
| CCOc1ccccc1CNC(=O)Cn1ncn2nc(-c3cccs3)cc2c1=O | 17.4% |
| COc1ccccc1CCNC(=O)C(=O)NCC(c1cccs1)S(=O)(=O)c1ccc(C)cc1 (stereo unspecified) | -8.83% |
| COc1ccc(Nc2nnc(-c3cc4c(ccc5ccccc54)oc3=O)s2)cc1 | 1.7% |
| COc1ccccc1C(=O)Nc1nc2nc(-c3ccccc3)cc(=O)n2[nH]1 | 3.26% |
| Cc1cc(C)cc(NC(=O)[C@H](NC(=O)[C@@H]2Cc3ccccc3CN2)c2ccccc2)c1 | active: 40.1% |
| CCc1nn2c(=O)cc(COC(=O)c3ccc(NC(=O)c4cccs4)cc3)nc2s1 | -0.319% |
| Cc1ccccc1NS(=O)(=O)c1ccc2[nH]cc(C(=O)NC(C)c3ccccc3)c(=O)c2c1 (stereo unspecified) | -23.8% |
| CC1CCC(NC(=O)CN2CCC(n3nnc4cc(F)ccc43)CC2)CC1 (stereo unspecified) | active: 41.2% |
| Cc1ccc(-c2noc(-c3ccc(NCc4ccco4)c([N+](=O)[O-])c3)n2)cc1 | 13.6% |
| COc1cc(NC(=O)CC(c2ccc(C)cc2)N2Cc3ccccc3C2=O)cc(OC)c1 (stereo unspecified) | 21.9% |
| CC1=C(c2ccc(F)cc2)S(=O)(=O)NC1=NCc1ccccc1F | 5.99% |
| COC1CCCN(C(=O)c2ccc3oc(Cc4ccc(Cl)cc4)nc3c2)C1 (stereo unspecified) | active: 30.6% |
